The full ranking holds about 81,000 sequences; the median of “one-hybrid fitness for binding parS DNA” is about -0.17, and the highest 2% start at about 0.51. The list shows a part of the results.
B1: Caulobacter ParB omega fusion; a variant is named by its letters at X, in order, B8GW30 (parent)
chain: MESVVVGEPGMSEGRRGLGRGLSALLGEVDAAPAQAPGEQLGGSREAPIEILQRNPDQPRRTFREEDLEDLSNSIREKGVLQPILVRPSPDTAGEYQIVAGERAWRAAQRAGLKTVPIMVRELDDLAVLEIGIIENVQRADLNVLEEALSYKVLMEKFERTQENIAQTIGKSXSHVANXMRLLXLPDEVQSYLVSGELTAXHARAIAAAADPVALAKQIIEGGLSVRETEALARKAPNLSAGKSKGGRPPRVKDTDTQALESDLSSVLGLDVSIDHRGSTGTLTITYATLEQLDDLCNRLTRGI

Variants of: B1
Experiment: one-hybrid fitness for binding parS DNA (scaled: cognate 1, non-cognate 0); higher = stronger binding
Details: with parS DNA site
Summary of the method: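 Pre- and post-selection plasmids were Illumina-sequenced, three replicate libraries were pooled, and any variant with under 10 reads was removed. The libraries were Caulobacter ParB with four specificity codons randomised, selected in E. coli USO through a HIS3 reporter whose site is 19 bp from the promoter. Cells grew 48 hours at 37°C on M9 without histidine, with 0.1 mM IPTG and 5 mM 3-AT. Fitness is the log change in variant-to-wild-type read ratio, rescaled against cognate and non-cognate.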

Variant | one-hybrid fitness for binding parS DNA
IKPS | ≤ 0.2
GYHK | ≤ 0.2
ACSF | ≤ 0.2
ALRK | ≤ 0.2
AMNM | ≤ 0.2
VYVS | ≤ 0.2
ACFS | ≤ 0.2
EIDR | ≤ 0.2
RWAY | 0.278
GFTN | ≤ 0.2
ARAT | ≤ 0.2
SQKW | ≤ 0.2
CPCG | ≤ 0.2
ILSN | ≤ 0.2
CQQI | ≤ 0.2
RRPF | ≤ 0.2
AKVL | ≤ 0.2
PANI | ≤ 0.2
KYYL | ≤ 0.2
SFHT | ≤ 0.2
STPK | ≤ 0.2
LPMG | ≤ 0.2
GSIT | ≤ 0.2
QWKK | ≤ 0.2
VVGH | ≤ 0.2
QCYR | ≤ 0.2

Variant | one-hybrid fitness for binding parS DNA
RQNQ | ≤ 0.2
RNKW | 0.276
ELEG | ≤ 0.2
YYKR | ≤ 0.2
KKTM | ≤ 0.2
KTPP | ≤ 0.2
QNLF | ≤ 0.2
SIKI | ≤ 0.2
KPGW | ≤ 0.2
PSCY | ≤ 0.2
RSKG | 0.944
HTES | ≤ 0.2
EHMI | ≤ 0.2
PAWC | ≤ 0.2
THRV | ≤ 0.2
LQPH | ≤ 0.2
RAVR | ≤ 0.2
VYTE | ≤ 0.2
GLWT | ≤ 0.2
RGHR | ≤ 0.2
QQTK | ≤ 0.2
IRHL | ≤ 0.2
LPEF | ≤ 0.2
AVHY | ≤ 0.2
WSWG | ≤ 0.2
LPPL | ≤ 0.2

Variant | one-hybrid fitness for binding parS DNA
PNVV | ≤ 0.2
NPDC | ≤ 0.2
DAVH | ≤ 0.2
RPHQ | ≤ 0.2
FAIT | ≤ 0.2
RQCY | 0.412
GMDW | ≤ 0.2
WIVG | ≤ 0.2
IHRW | ≤ 0.2
IRVR | ≤ 0.2
YYIR | ≤ 0.2
NYPC | ≤ 0.2
YRTV | ≤ 0.2
AGRH | ≤ 0.2
YRCF | ≤ 0.2
SASE | ≤ 0.2
QFGF | ≤ 0.2
FDNS | ≤ 0.2
AMLC | ≤ 0.2
PLLD | ≤ 0.2
SKLV | ≤ 0.2
HEKS | ≤ 0.2
GLMR | ≤ 0.2
AVGA | ≤ 0.2
MGTV | ≤ 0.2
FPSY | ≤ 0.2

Variant | one-hybrid fitness for binding parS DNA
QERG | ≤ 0.2
APWR | ≤ 0.2
YTRG | ≤ 0.2
AVDM | ≤ 0.2
HGCT | ≤ 0.2
LKTC | ≤ 0.2
RGIY | ≤ 0.2
RFSI | ≤ 0.2
QQIV | ≤ 0.2
RNWF | ≤ 0.2
AGRG | ≤ 0.2
HHPV | ≤ 0.2
PHFN | ≤ 0.2
QHGM | ≤ 0.2
QVAN | ≤ 0.2
PLMT | ≤ 0.2
ERKT | ≤ 0.2
VMPF | ≤ 0.2
EGTE | ≤ 0.2
VYYA | ≤ 0.2
ARFG | ≤ 0.2
FHPT | ≤ 0.2
TKSG | ≤ 0.2
YREG | ≤ 0.2
TYRH | ≤ 0.2
YLLA | ≤ 0.2

Variant | one-hybrid fitness for binding parS DNA
VRWA | ≤ 0.2
SGCL | ≤ 0.2
SQHC | ≤ 0.2
KMHT | ≤ 0.2
TNRN | ≤ 0.2
NFRV | ≤ 0.2
MYGG | ≤ 0.2
ANKT | ≤ 0.2
ASWI | ≤ 0.2
LLPF | ≤ 0.2
QCRN | ≤ 0.2
QCLL | ≤ 0.2
PRLR | ≤ 0.2
RFDF | ≤ 0.2
MELT | ≤ 0.2
PHWT | ≤ 0.2
KPMR | ≤ 0.2
DITG | ≤ 0.2
VVMN | ≤ 0.2
ALQI | ≤ 0.2
DYIL | ≤ 0.2
FPLG | ≤ 0.2
TRGA | ≤ 0.2
IFWG | ≤ 0.2
EDDS | ≤ 0.2
KSDS | ≤ 0.2

Variant | one-hybrid fitness for binding parS DNA
WSVM | ≤ 0.2
RMFE | ≤ 0.2
LPIK | ≤ 0.2
LKLI | ≤ 0.2
KWRG | ≤ 0.2
RNNC | 0.869
KTTQ | ≤ 0.2
LLHS | ≤ 0.2
RRCE | ≤ 0.2
AYRS | ≤ 0.2
AIHQ | ≤ 0.2
FQYG | ≤ 0.2
GEDR | ≤ 0.2
QFKS | ≤ 0.2
KNKP | ≤ 0.2
GRLV | ≤ 0.2
WRRW | ≤ 0.2
HGKT | ≤ 0.2
RKWI | ≤ 0.2
HLER | ≤ 0.2
FLLI | ≤ 0.2
AFSG | ≤ 0.2
KNSF | ≤ 0.2

— a collection of fitness landscapes (doi:10.1016/j.celrep.2020.107928)
